From PMC4336329 (PLoS ONE, 2015)
The campaign covered roughly 310,000 compounds. About 14,000 (4.5%) showed an effect of 50% or more. The effect is printed as a negative number. The list shows a part of the results.

target: human ether-à-go-go-related gene (hERG) potassium channel (human, UniProt Q12809); assay: primary screen, population patch clamp on CHO cells stably expressing hERG
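Further: peak tail current of the secondary pulse compared with the same well before compound.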

Chain of human ether-à-go-go-related gene (hERG) potassium channel (Q12809 whole entry, looked up): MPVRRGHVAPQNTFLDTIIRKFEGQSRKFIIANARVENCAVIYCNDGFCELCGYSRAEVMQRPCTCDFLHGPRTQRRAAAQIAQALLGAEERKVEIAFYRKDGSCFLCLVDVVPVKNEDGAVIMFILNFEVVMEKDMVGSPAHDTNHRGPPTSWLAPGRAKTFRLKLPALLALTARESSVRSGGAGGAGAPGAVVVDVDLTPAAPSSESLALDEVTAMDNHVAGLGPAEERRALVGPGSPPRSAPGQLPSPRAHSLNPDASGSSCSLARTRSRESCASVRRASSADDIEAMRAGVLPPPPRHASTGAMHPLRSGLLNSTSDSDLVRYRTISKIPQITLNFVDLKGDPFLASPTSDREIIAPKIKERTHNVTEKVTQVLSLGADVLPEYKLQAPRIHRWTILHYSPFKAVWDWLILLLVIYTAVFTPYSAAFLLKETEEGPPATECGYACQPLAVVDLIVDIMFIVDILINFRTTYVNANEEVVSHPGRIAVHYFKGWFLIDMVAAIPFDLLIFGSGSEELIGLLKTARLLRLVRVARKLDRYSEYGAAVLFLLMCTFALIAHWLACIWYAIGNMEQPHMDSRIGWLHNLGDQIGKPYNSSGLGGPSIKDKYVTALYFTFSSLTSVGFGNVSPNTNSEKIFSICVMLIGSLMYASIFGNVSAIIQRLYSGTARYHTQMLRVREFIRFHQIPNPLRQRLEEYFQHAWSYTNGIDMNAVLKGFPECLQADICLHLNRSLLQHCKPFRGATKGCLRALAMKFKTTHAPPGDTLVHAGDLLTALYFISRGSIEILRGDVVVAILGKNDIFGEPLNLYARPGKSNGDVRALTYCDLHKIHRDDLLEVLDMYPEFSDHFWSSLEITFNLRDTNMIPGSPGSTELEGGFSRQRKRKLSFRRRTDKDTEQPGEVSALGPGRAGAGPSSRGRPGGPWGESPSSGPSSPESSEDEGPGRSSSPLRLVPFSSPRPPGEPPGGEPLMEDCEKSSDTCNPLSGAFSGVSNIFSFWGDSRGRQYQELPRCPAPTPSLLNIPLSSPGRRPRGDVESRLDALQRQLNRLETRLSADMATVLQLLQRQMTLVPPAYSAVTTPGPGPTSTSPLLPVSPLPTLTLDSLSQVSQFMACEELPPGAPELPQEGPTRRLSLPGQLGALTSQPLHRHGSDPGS

Row | SMILES | hERG current change (%, negative = inhibition) at 10uM
1 | CC(C)c1ccc(N(C(=O)CNC(=O)c2ccco2)C(C(=O)NC2CCCC2)c2ccncc2)cc1 (centres unmarked) | -6.92%
2 | CCNc1nc(SCC(=O)OC)nc(N2CCOCC2)n1 | -21.7%
3 | N#C/C(=N\Nc1ccc(S(=O)(=O)N2CCCCCC2)cc1)C(N)=S | 4.21%
4 | Cc1cccc(OC(=O)NCCOC(=O)N(O)c2ccc(Cl)cc2)c1 | -14.4%
5 | COc1ccc(/C(O)=C2/C(=O)C(=O)N(CCN(C)C)C2c2ccc(F)cc2)cc1Cl (centres unmarked) | 13.8%
6 | Cc1cc(Nc2cccc(F)c2)n2ncnc2n1 | -4.7%
7 | CSC(=S)N/N=C/c1c[nH]c2ccccc12 | 12.3%
8 | Cc1ccc(C(=O)c2cc([N+](=O)[O-])ccc2N2CCOCC2)c(C)c1 | -26.5%
9 | O=C(NCc1nc2ccccc2[nH]1)C1=C[C@@H](C2CC2)C[C@@H](OCc2ccc(CO)cc2)O1 | 9.06%
10 | O=C(CSc1ccc(-c2ccc(-n3cccn3)cc2)nn1)Nc1ccccc1F | 17%
11 | COc1cc(OC)c2cc(C(=O)N/N=C/c3cccc(OC)c3O)[nH]c2c1 | 5.14%
12 | O=C(N1CCN(c2ccc(F)cc2)CC1)C1(c2cccs2)CCOCC1 | -33%
13 | CC(OC(=O)C12CC3CC(CC(O)(C3)C1)C2)C(N)=O (centres unmarked) | 14.7%
14 | O=c1cnnc(N/N=C/c2ccccn2)[nH]1 | 31.1%
15 | Cc1ccc(C(OCC(C)(C)C[N+](C)(C)C)c2ccccc2)cc1.[I-] (centres unmarked) | -36.7%
16 | O=C(NC(=S)Nc1ccccn1)c1ccc([N+](=O)[O-])cc1 | -11.9%
17 | C=CCN1C(=O)N/C(=C/c2ccc(N3CCOCC3)o2)C1=O | 5.46%
18 | O=C(NCC(c1ccco1)N1CCc2ccccc2C1)c1ccc(Cl)cc1 (centres unmarked) | -47.8%
19 | O=C(CSc1cn[nH]n1)Nc1ccc(O)c(C(=O)O)c1 | 10.9%
20 | C=CCn1c(Cn2nnc3ccccc32)nnc1SCC(=O)N/N=C/c1cc(Br)cc(OC)c1O | 13.5%
21 | COc1ccc(CCNCc2c(OC)ccc3ccccc23)cc1.O=C(O)C(=O)O | -44.9%
22 | Cc1cccc(NC(=O)/C(C#N)=C/c2cccc([N+](=O)[O-])c2)n1 | 1.3%
23 | Cc1cc(C(C2C(=O)CC(C)(C)CC2=O)C2C(=O)CC(C)(C)CC2=O)cc(C)c1OC(F)F | -0.965%

Row | SMILES | hERG current change (%, negative = inhibition) at 10uM
24 | Cc1nnc2ccc(-c3ccc(NC(=O)Cc4cccs4)cc3)nn12 | -25.4%
25 | CCOC(=O)N1CCN(C(=O)COc2ccc(S(=O)(=O)NCc3ccccc3)cc2)CC1 | -28.2%
26 | CCOc1ccc(OCC)c(NC(=O)C2CCN(c3cnccn3)CC2)c1 | 4.38%
27 | O=C(c1cc(C2CC2)nn1-c1ccccc1)N1CCN(Cc2c(F)cccc2Cl)CC1 | -36.6%
28 | CCn1c(SCC(=O)NC2CCCC2)nnc1-c1cccnc1 | 5.55%
29 | CCCn1c2c(c(O)c(C(=O)Nc3ncccc3C)c1=O)CCCC2 | -26.7%
30 | O=C(O)CC(c1ccccc1F)N1Cc2ccccc2C1=O (centres unmarked) | 10.7%
31 | O=C(NNC(=S)NC(=O)c1cccs1)c1ccc(NC(=O)c2ccccc2)cc1 | 13.7%
32 | O=C(Cn1ncc2c([nH]c3ccccc32)c1=O)N1CCN(c2ccccc2F)CC1 | 1.65%
33 | COc1cc([N+](=O)[O-])ccc1NC(=O)Cc1ccccc1 | 16.3%
34 | CCCC(=O)Nc1nnc(S(=O)(=O)N(CC(C)C)c2ccccc2)s1 | 30.8%
35 | COc1ccc2nc(SCC(=O)Nc3ccccc3)[nH]c2c1 | -3.45%
36 | O=C(N/C=C/c1ccco1)NCc1ccccc1 | 16.6%
37 | COc1cc(/C=C(/C#N)C(=O)c2c(C)[nH]c3ccccc23)ccc1OCC#N | -2.68%
38 | COCCN(C(=O)C1=COCCO1)c1c(N)n(Cc2ccccc2)c(=O)[nH]c1=O | 12.1%
39 | CN1CCN(CC(=O)N/N=C/c2ccc(F)c(F)c2)CC1 | 8.23%
40 | Cc1ccc2nc(N(CCN(C)C)C(=O)c3cc(Cl)sc3Cl)sc2c1.Cl | 7.55%
41 | CC1(C(=O)NCCCN2CCOCC2)Oc2cccnc2NC1=O (centres unmarked) | 13.2%
42 | O=C(c1cccs1)n1nc(-c2ccco2)nc1SCc1ccccc1 | 5.76%
43 | CCc1ccc(NC(=O)CNC(=O)Cn2ccc3ccccc3c2=O)cc1 | 19.8%
44 | CC(=O)c1ccc(OCC(C)C)c(CC(C(N)=O)C(N)=O)c1 | 19.2%
45 | CNP1(NC)=Nc2nn(-c3ccccc3)c(N)c2C(c2ccccc2)=N1 | 5.52%
46 | CC1=CC(C)(C)NC(=O)N1c1ccc(C)cc1 | 4.5%

Row | SMILES | hERG current change (%, negative = inhibition) at 10uM
47 | COc1ccccc1CC1S/C(=N/N=C/c2ccco2)NC1=O (centres unmarked) | 17%
48 | O=C(c1ccccn1)c1conc1C(=O)c1ccc(Br)cc1 | -27.2%
49 | CCCCN(CCCC)C(=O)c1sc2nc(N3CCOCC3)c3c(c2c1N)CCCC3 | 9%
50 | C/C(=N\O)c1ccccc1C(=O)O | 7.25%
51 | COc1cccc(-c2nc(CS(=O)(=O)CC(=O)NCc3ccc(Cl)cc3)c(C)o2)c1 | 2.76%
52 | Cc1cc(-c2ccccc2C(=O)NCc2ccccc2)on1 | 5.04%
53 | O=C(Nc1ccccc1F)Nc1cccnc1Cl | 9.22%
54 | CCn1c(C(C)C)n[nH]c1=S | 11.5%
55 | CCCC(=O)OCC(=O)NC1CCCc2ccccc21 (centres unmarked) | 19.7%
56 | COC(=O)C1C(C(=O)OC)C1(c1ccccc1)c1ccccc1 (centres unmarked) | 16.2%
57 | Cn1c(SCC(=O)Nc2nc3ccccc3s2)nnc1-c1ccccc1 | 10.3%
58 | O=C(CSc1ccc(-c2cccs2)nn1)N1CCCCC1 | -4.77%
59 | COCCCN1C(=O)c2ccc(C(=O)N3CCN(c4ccc(OC)cc4)CC3)cc2C1=O | -10.6%
60 | CCc1cccc(NC(=O)CCc2c(C)nn(-c3ccc(N4CCOCC4)nn3)c2C)c1 | -51.4%
61 | O=Cc1cccn1-c1nccc(-c2ccco2)n1 | -17.7%
62 | CC(C)CCNC(=O)NC(=O)COC(=O)CCN=C1NS(=O)(=O)c2ccccc21 | 12.2%
63 | O=C1CSC(c2cn(-c3ccccc3)nc2-c2cc3ccccc3oc2=O)N1Cc1ccccc1 (centres unmarked) | 5.85%
64 | COC(=O)C1=C(c2ccc(F)cc2OCc2ccccc2)C[C@@H]2CC[C@H]1N2C(=O)NCc1ccc(N(C)C)cc1 | 5.5%
65 | Fc1cccc(CCN2CCNC[C@@H]2Cc2ccccc2)c1 | -4.41%
66 | CCc1cc2c(=O)[nH]cnc2s1 | -3.48%
67 | O=c1[nH]nc(CSCc2ccccc2Cl)[nH]1 | 6.6%
68 | COc1ccccc1N1CC(C(=O)Nc2cc(C(F)(F)F)ccc2N2CCCC2)CC1=O (centres unmarked) | -15.3%
69 | COc1cc2cc(CN(C(=O)NC3CCCCC3)C3CCCC3)c(=O)[nH]c2cc1OC | -8.99%

Row | SMILES | hERG current change (%, negative = inhibition) at 10uM
70 | Cc1csc(Nc2ccc(Cl)cc2)n1 | 4.47%
71 | N#Cc1nc(COc2ccccc2)oc1N1CCCC1 | -31.1%
72 | COc1cccc(-c2onc3ccc(C(=O)/C=C/N(C)C)cc23)c1 | -31.4%
73 | CCOc1ccc(/C=C2\CCC(C3CCCC3)C2=O)cc1 (centres unmarked) | 10.6%
74 | C/C(=N\NC(=O)CN(c1ccc(Oc2ccccc2)cc1)S(C)(=O)=O)C(C)(C)C | 7.07%
75 | Cn1cccc1CC(=O)NNC(=S)NC(=O)c1ccccc1Br | 13.1%
76 | CC(=O)Nc1ccc(Nc2c3c4c(cccc4n(C)c2=O)C(=O)c2ccccc2-3)cc1 | 7.17%
77 | COc1cc(/C=N/NC(=S)Nc2cccc(C(=O)O)c2)cc(OC)c1OC | 43%
78 | CCc1noc(C)c1C(=O)Nc1ccc(-c2nnc3n2CCCCC3)cc1 | 14.1%
79 | Cn1c(CNC(=O)C2CCCCC2)cc2cc(Cl)ccc21 | 9.29%
80 | O=C(c1ccc(Cl)cc1)N1CCN(C(=O)c2ccco2)CC1 | -21%
81 | O=C(c1ccccc1F)N(Cc1ccccc1)Cc1ccccc1 | 2.16%
82 | COC(=O)c1oc2ccc(Br)cc2c1NC(=O)c1ccccc1 | 11.5%
83 | NS(=O)(=O)c1ccc(NC(=O)c2ccc3nccnc3c2)cc1 | 0.796%
84 | COC(=O)c1c(NC(=O)CCC(=O)O)sc(Cc2ccccc2)c1C | -7.29%
85 | CC1CCCN(S(=O)(=O)c2ccc(C(=O)Nc3nnc(-c4ccccc4Cl)o3)cc2)C1 (centres unmarked) | 9.83%
86 | COc1ccc(-n2nc3c(c2NC(=O)c2ccc4c(c2)OCO4)CS(=O)(=O)C3)cc1 | -7.66%
87 | O=C(NC12CC3CC(CC(C3)C1)C2)c1ccccc1O | 7.43%
88 | Cl.O=C(CN1CCCC1)N1c2ccccc2Sc2ccc(C(F)(F)F)cc21 | 1.06%
89 | CCn1c(SCc2nc(-c3ccccc3)no2)nnc1-c1cccs1 | -61.2%
